Assay results as given in the RNAGym collection of RNA variant scans (doi:10.7554/elife.90254).
Read counts are not given, so values of variants with three or more changes are uncertain.

B1: LINE1-mini (parent)
chain: GGCAGAGCUCAACACAGCGUGGCAAAGUGGCUGUGGCUAGACUGCC

Variants of: B1
Experiment: self-cleavage, relative activity (ratio to wild type); higher = more cleavage; in vitro, sequencing; the parent is a self-cleaving ribozyme
Work on GUCAGAGCUCAACACUACGUGGCAAAGUGGCUGUGGCUAGACUGCC yielded a self-cleavage of 0.03. Variant GGCAGAGCUCAACACAGCGUGGCAAAUCGGCUGUGGCUAGUCUGCC has a self-cleavage of 0.46. Work on GGAACAGCUCAACACAGCGUGGCAAAGUGGCUGUGUCUAGACUGCC yielded a self-cleavage of 2.61. Work on GGCAGAGCUCAACACAGCGUGGCAUAGUGGCUGUGGCUAGACUACA yielded a self-cleavage of 0.03. GGCAGAGCUCAACAAAGCGUGGCAAAGUGGCUGUGGCGGGACUGCC showed a self-cleavage of 0.06. GGGAGAGCUCAGCACAGCGUGGCAAAGUGGCUCUGGCUAGACUGCC gave a self-cleavage of 0.14. In the case of GGCAGAGCUCAACACAGCGUGGCAAAAUGGCUGUGUCUAGACAGCC, the self-cleavage is reported as 0.04. With GGCAGAGCUCAACAUAGCGUGGCAAAGUCGCUGUGGCUAGACUACC the self-cleavage was 0.31. Work on CGCAGAGCUCAUCACAGCGUGGCAAAGUGGCUGAGGCUAGACUGCC yielded a self-cleavage of 0.01. Work on GGCGGAGCUCAACACAGCGUGGCAAAGUGGCUGUGACUAUACUGCC yielded a self-cleavage of 0.23. With GGCAGAGCUCACCACAGCGUGGCAAAGUCGCCGUGGCUAGACUGCC the self-cleavage was 0.02. In the case of GGCAGAGCUCAACACAUCGUGCCAAAGUGGCUGAGGCUAUACUGCC, the self-cleavage is reported as 0.01. GGCGGAGCAGAACACAGCGUGGCAAAGUGGCUGUGGCUAGACUGCC showed a self-cleavage of 0.02. Variant GUCAGAGCUCAACACAGUAUGGCAAAGUGGCUGUUGCUAGACUGCC has a self-cleavage of 0.05. For GGCAGAGCUCAACACAGAGUGGCAAAGCGGCUGUGGCUAUACUGCC, the self-cleavage was 0.04. AGCAGAUUGCUACAUCCCAUGGCAAAGUGGCUGUGGCUAGACUGCC gave a self-cleavage of 0.04. Variant GGCCGCGCACAACACAGCGUGGUAAAGUGUCUGUGGCUAGACUGCC has a self-cleavage of 0.04. In the case of GGCAGAGCUCAACACACCGUGGCAAAAUGGAUGUGGCUAGACUGCC, the self-cleavage is reported as 0.71. With GGCAGAGCUCAACACAGCGUGGCUAAGUUGCUGUGGAUAGACAGCU the self-cleavage was 0.04. Work on GGCAGUGCUCAACACAGCGUUGCAAAGUGGCUGUGGCUAGACUGUC yielded a self-cleavage of 0.34. Variant GGCAGAGCUCGACACAGCGUGGCAACGCGAACGCGGCAAUACUGCC has a self-cleavage of 0. Variant GGUAGAGCUCAACACAGCGUGCCAACGUGGCGGUGGCUAGACUGCC has a self-cleavage of 0.01. With GGAUUAGCUCAGCACAACGUGGCAGCGUGGCUGUGGCUAGACUGCC the self-cleavage was 0.02. Variant GGAAGAGCUCAACACAGCGUGGCAAAGUGGCUGUGGUUAGAAUGCC has a self-cleavage of 0.07. In the case of GGCAAAGCUCAAUACAGCGUGGCAAAGUUGCUGUGGCUAGACUGCC, the self-cleavage is reported as 0.13. With GGUAGAGCUGAUCACAGCGUGGCAAGGUGGCUGUGGUUAGACUGCC the self-cleavage was 0. GGCAGAGCUCAACACAGCGUGUCAAAGGGGCUGUGGAUAGAAUGCC showed a self-cleavage of 0.18. GGAAGAGCUCAACACAGCCUGGCAAAGUGGCAGUGGCUAGACUGCC gave a self-cleavage of 0.05. Variant GGAAGGGCUCAACACAGCGUGGCAAAGUAGUUGUGGCUAGACUGCC has a self-cleavage of 0.14. Variant GGCAGAGCUCAACCCAGCGUGGCAAUGUGGCUGUAGCUAGACUCCA has a self-cleavage of 0.03. In the case of GGCAGUGCUCAACACAGCGUGGUAAAGUGGCCGUGGCUGGACUGCC, the self-cleavage is reported as 0.06. Variant GACAGAGCUCAACACCGCGUGGCAAAGUGGCUGAGGCUAGACUGCC has a self-cleavage of 0.07. GACAGAGGUCAACACAGCGUGGCAAAGUGGCUGUGGCUAGAUUGCC gave a self-cleavage of 0.04. Variant GUCAGAGCUAAACACAGCGUGGCAAAGUGGCUGUGGCUAGACUCCC has a self-cleavage of 0.07. Variant GGCAGAGUUCAACCCAGCGUGGCAAAGAGUCUGUGGCUAGACUGCC has a self-cleavage of 0.12. In the case of GGCAGAGCUCAACACAUUGUGGCCAAGUGGUUGUGGGUAGACUGCC, the self-cleavage is reported as 0.04. GGCAUAGCUCAACACAGCGUGGAAAAGUGGCUGCGGCUAGACUGAC showed a self-cleavage of 0.12. Variant GGCAGAGCUCAACACAGCGGGGCAAAGUGGAUGGGGCUAGACUGCC has a self-cleavage of 0.13. Work on GGCAGAGCUCAACACAGCGUGGGAAAGUGGCUGUAACUAGACUAGC yielded a self-cleavage of 0.13. For GGCAGAGCUCAACGCAGCGUGGCAAACUGGCUUUGGCUAGACUGCC, the self-cleavage was 0.05. With GGCAGAGCUCUACACAGCGAGGCAAAGUGGCUGUGGCUAUACUGAC the self-cleavage was 0. For GGCAGAACUCAACACAGAGUGGUAAAGUGGCUGUGGCUAGACUGCC, the self-cleavage was 0.14. With GGCUGAGCUUAUCACAGCGUAGCAAAGUGGCUGUGGCUAAACUGCC the self-cleavage was 0.06. Variant GGCCGAGCUCAACACACCGUGGCAAAGUGGCUGUGACUAGACUGCC has a self-cleavage of 0.29. GGUAGAGCUCAACACAGCGUGGCAAAGUGGCUGUGGCCCGACUGCC gave a self-cleavage of 0.17. In the case of GGCAGGGCUCAACACAGCGUGGCAUAGUGGCUGUGGCUAGAUUGCC, the self-cleavage is reported as 0.19. Work on GGCAGAGCUCAAGACCGCGUGGCAUAGUGGCUGUGGCUAGACUGCC yielded a self-cleavage of 0.04. In the case of GCCGGAUCUCAGCACAGCGUGGCAAAGUGGCUGUGGCUAGACAGCC, the self-cleavage is reported as 0.08. In the case of GGCCGAGCUCAGCACAGCGUGGCAAAGUGGCUGUGGCUAGACAGCG, the self-cleavage is reported as 0.01. GGCAGAGCUCAACACAGCGGGGCACAGUGGCUGUGGCUCGACCGCC gave a self-cleavage of 0.1. With GGUAGAGCUCAACACAGCGUGGCAAAGUGGCUGUGGCUACACUACC the self-cleavage was 0.17. GGCAGAGCUCCACAUAGCGUGACAAAGUGGCUGUGGCUAGACUGCC gave a self-cleavage of 0.01. In the case of AGCAGAGCUCAACACAGCGUGGUAAGGUGGCUGUGGCUAGACUGCC, the self-cleavage is reported as 0.28. With GGCAGCGCUCAACACUGCGUGGCAAAGUAGCUGUGACUAGACUGCC the self-cleavage was 0.25. GGCAGAGGUCAACACAGAGUGGCAAAGUGGCUGUGGUUAGACUGCC gave a self-cleavage of 0.15. Work on GGCAGAGCUCAACACAGCGUGGUUAAGUGUCUGUGGCUAAACUGCC yielded a self-cleavage of 0.15.
